Results reported in PMC12040169 (PLOS Biology, 2025).
This is one part of the list.

System: T1, C. trachomatis L2/434/Bu expressing GFP (CTL2-GFP)
T1 construct: L2/434/Bu GFP intracellular growth in HeLa cells
Set-up: species or system HeLa; C. trachomatis total inclusion area by high-content imaging, normalised to DMSO
Conditions: total inclusion area; 28.5 h, 10 µM; inhibitor
Procedure, shortened: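 After bulk GFP and resorufin fluorescence reads, cells were fixed, stained with Hoechst and imaged by high-content microscopy. Inclusion area and number (GFP) stood in for chlamydial growth, nuclei count (Hoechst) for host cell viability. MICs were derived as for the bulk readout.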

Row | SMILES | % of control remaining
1 | COc1ccc(Cn2c(C3CCNCC3)cc3cccnc32)cc1 [CBK285077] | 77.1926
2 | O=C(CCn1c(-c2ccccc2)c(-c2ccccc2)c2ccccc21)N/N=C/c1cccc(O)c1 [CBK262348] | 4.546
3 | O=C(/C=C/c1cn([C@H]2C[C@@H](O)[C@@H](CO)O2)c(=O)[nH]c1=O)ON1C(=O)CCC1=O [CBK201188] | 146.465
4 | COc1cc(CNc2cc(-c3cccc4cccnc34)ncn2)cc(OC)c1OC [CBK091179] | 80.0595
5 | CN(C)CCNc1nc(-c2cccnc2)nc2ccccc12 [CBK264471C] | 111.895
6 | CC(C)c1cc(C(=O)N2CC(N3CCOCC3)C2)nc2ncnn12 [CBK306572] | 85.7597
7 | Cc1cc(CN(C)Cc2cnn(-c3ccc(F)cc3)c2)n[nH]1 [CBK281706] | 90.7362
8 | CN(C)[C@H]1CCN(C(=O)c2ccc(Nc3cncc(Cl)n3)cn2)C1 [CBK172073] | 117.072
9 | Cc1ccc(SCCNC(=O)C(C)Sc2ccc(Cl)cc2)cc1 (stereo not drawn) [CBK264104] | 101.217
10 | CC(C)c1nccc(CN2CCC(CCN3CCCC3=O)CC2)n1 [CBK306887] | 39.3161
11 | COc1ccc2c(c1)C1(CC(=O)N(Cc3cccnc3)C1=O)C(=O)N2C (stereo not drawn) [CBK075236] | 102.823
12 | CC(C)C(=O)N1C[C@H]2N(C)C(=O)c3ccccc3C(=O)[C@@]2(C)C1 [CBK284568] | 118.155
13 | Nc1cc(-c2cccs2)nn(Cc2ccccc2Cl)c1=O [CBK282884] | 111.374
14 | COCc1cccc(-c2nccnc2OC2CCCCC2)c1 [CBK106959] | 105.971
15 | Cc1ccc(-c2nsc(SCC(=O)c3ccc(Cl)cc3)n2)cc1 [CBK113177] | 108.937
16 | COc1cc(-c2nccnc2NCC2CCCCC2)cc(OC)c1OC [CBK037647] | 80.9556
17 | CCc1nc2ccc(C(=O)N(C)CCN(C)C)cn2c1N(C)Cc1cc2ccccc2s1 [CBK146551] | 87.1258
18 | CS(=O)(=O)CCS(=O)(=O)N1CCOCC1c1cccc(F)c1 (stereo not drawn) [CBK304111] | 23.8792
19 | CNC(=O)c1cnc(SC)nc1NCCc1c[nH]c2ccccc12 [CBK093597] | 52.7287
20 | O=C(O)C(c1c[nH]c2cc(CO)ccc12)N1CCCN(c2ccc(C(F)(F)F)cn2)CC1 (stereo not drawn) [CBK286845] | 95.5886
21 | COCCNC(=O)N1CCCC(CO)C1 (stereo not drawn) [CBK156040] | 98.1381
22 | CN(C(=O)C1(C)CCOCC1)c1nc2c(s1)CC(c1ccccc1)CC2 (stereo not drawn) [CBK305531] | 81.9253
23 | CC(=O)Nc1ccc(-c2ccc(C(=O)NCc3ccc(C(C)C)cc3)cn2)cc1 [CBK158857] | 64.6233
24 | Cc1ccnc2nc(C(=O)OCC(=O)Nc3cccc(C#N)c3)nn12 [CBK305068] | 63.803
25 | Cc1ccc(-c2ccc(CCC(=O)O)n2CC2CCCO2)cc1 (stereo not drawn) [CBK268636] | 93.8287
26 | c1ccc(-c2cccc(-c3cc(Nc4ccc(N5CCOCC5)cc4)ncn3)c2)cc1 [CBK090930] | 73.2722

Row | SMILES | % of control remaining
27 | CCN1CCC2(CCC1=O)CN(Cc1cncn1CC(C)C)CCN2C (stereo not drawn) [CBK306947] | 52.9822
28 | Cc1ccc(N2CCCN(C(=O)CCc3ccsc3)CC2)nn1 [CBK304573] | 55.581
29 | CCCc1cc(=O)[nH]c(Nc2ccc(OCC)cc2)n1 [CBK288140] | 80.9121
30 | O=S(=O)(c1ccc(C(F)(F)F)cc1Cl)N1CCN(Cc2c[nH]nc2-c2cccs2)CC1 [CBK062864] | 81.605
31 | CC(C)(C)OC(=O)Nc1ccc(Oc2ncc(C(F)(F)F)cc2Cl)cc1 [CBK161658] | 88.019
32 | Cc1cc2ncc3c(n2n1)CC1CCC3N1Cc1ccccc1 (stereo not drawn) [CBK282266] | 85.6056
33 | Cc1ccc(C(=O)COC(=O)C(Cc2ccccc2)N2C(=O)c3cc(Cl)c(Cl)cc3C2=O)cc1 (stereo not drawn) [CBK264176] | 102.251
34 | N=C1NS(=O)(=O)NC1c1ccc(Cl)cc1 (stereo not drawn) [CBK263858] | 106.523
35 | COCCNc1nc(-c2ccsc2)ccc1C(=O)N1CCN(C)CC1 [CBK105948] | 76.2507
36 | OCCNCCNCc1ccc(-c2ccccc2)cc1 [CBK278269C] | 76.8416
37 | O=C(Nc1cccc(Br)c1)C1CN(S(=O)(=O)c2ccccc2)CCN1S(=O)(=O)c1ccccc1 (stereo not drawn) [CBK262671] | 78.8566
38 | COCCN1C(=O)CO[C@H]2CN(C(=O)Nc3ccc(F)cc3)C[C@H]21 [CBK289705] | 72.7419
39 | COc1ncc(-c2nccnc2Oc2cccc(NC(C)=O)c2)c(OC)n1 [CBK106747] | 88.3677
40 | O=c1c2ccccc2nc2n1CCN(Cc1c(F)cccc1F)CC2 [CBK284817] | 91.1981
41 | COc1ccc2c(CCNC(=O)C(c3ccccc3)c3ccccc3)c[nH]c2c1 [CBK269294] | 115.417
42 | Cc1c(C(=O)NC(Cc2ccsc2)c2cccnc2)cnn1C (stereo not drawn) [CBK285115] | 89.408
43 | Cc1cc(C)nc(N2CCC(CC(=O)NCc3ccccc3N3CCCC3)CC2)n1 [CBK286071] | 122.042
44 | O=C(CO)N1CC2(CCN(Cc3cc(=O)[nH]c(=O)[nH]3)CC2)c2ccccc21 [CBK131510] | 107.247
45 | CN(Cc1ccccc1)c1nccnc1-c1ccccc1Cl [CBK037502] | 114.927
46 | N#Cc1c(NC(=S)NC(=O)c2ccc(-c3cccc([N+](=O)[O-])c3)o2)sc2c1CCCC2 [CBK268471] | 92.6077
47 | CC(Oc1ccc(Br)cc1)C(=O)Nc1ccc(C(N)=O)cc1 (stereo not drawn) [CBK266760] | 97.4075
48 | COc1cc(N)c(Cl)cc1C(=O)OCc1cc2ccc(C)cc2nc1Cl [CBK296755] | 112.478
49 | c1ccc2oc(-c3cc4ccccc4o3)cc2c1 [CBK113363] | 100.362
50 | CCSc1nc(N2CCNC[C@@H]2C)ccc1C(F)(F)F [CBK003986A] | 82.3345
51 | NC(=O)C1CCN(C(=O)C2=NN(c3ccccc3)C(c3ccccc3)C2)CC1 (stereo not drawn) [CBK296760] | 106.696
